# Data taken from PMC12820563, “FoxP3 forms a head-to-head dimer in vivo and stabilizes its multimerization on adjacent microsatellites”.
# This is one part of the list.
# Target: T1, MBP-FoxP1dN (Mus musculus, UniProt P58462 326-579)
# T1 sequence: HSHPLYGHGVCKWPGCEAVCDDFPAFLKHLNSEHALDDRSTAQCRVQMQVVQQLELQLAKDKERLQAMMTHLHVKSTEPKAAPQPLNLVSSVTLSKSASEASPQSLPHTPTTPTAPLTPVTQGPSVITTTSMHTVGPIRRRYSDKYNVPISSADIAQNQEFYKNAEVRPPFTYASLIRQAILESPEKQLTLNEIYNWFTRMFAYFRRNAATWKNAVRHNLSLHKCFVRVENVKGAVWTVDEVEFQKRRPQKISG
# Assay: PD-seq (MBP pull-down with sequencing); 20 mM Tris-HCl pH 7.5, 100 mM NaCl, 1.5 mM MgCl2, 0.4 uM protein, 0.1 uM dsDNA library, 30 min, room temperature, amylose pull-down; high values mean tight binding
# Conditions: protein: recombinant; tags: His6-MBP; chain copies: 2; dsDNA, one strand shown
# Outline: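 Binding is the reads-per-million enrichment of pull-down relative to input, pooled across replicates. For this, 0.4 µM His6-MBP-tagged mouse FoxP3 or FoxP1 fragment lacking the N-terminus, made in E. coli, was incubated with 0.1 µM Klenow-filled double-stranded degenerate DNA library for 30 min at room temperature in Tris pH 7.5 buffer with NaCl and MgCl2. Complexes bound to amylose resin were washed three times before proteinase K released the DNA for PCR barcoding and Illumina sequencing.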
row,Sequence,binding signal
1,GATGATTGTTCTCCCAGCTGATGAATTGTTGACGTCGAGTAAACAAATTTTCCTAATCTTTCTGTTCAAGCGCCATCTAC,2.22 RPM ratio (pull-down/input)
2,GATGATTGTTCTCCCAGCTGATGAATTTATCTTATCGAGTAAACAAATTTTCCTAATCTTTCTGTTCAAGCGCCATCTAC,1.24 RPM ratio (pull-down/input)
3,GATGATTGTTCTCCCAGCTGATGAATTTAGGTTATCGAGTAAACAAATTTTCCTAATCTTTCTGTTCAAGCGCCATCTAC,1.08 RPM ratio (pull-down/input)
4,GATGATTGTTCTCCCAGCTGATGAATTAACGGGGTCGAGTAAACAAATTTTCCTAATCTTTCTGTTCAAGCGCCATCTAC,0.768 RPM ratio (pull-down/input)
5,GATGATTGTTCTCCCAGCTGATGAATTTCAGCTATCGAGTAAACAAATTTTCCTAATCTTTCTGTTCAAGCGCCATCTAC,0.886 RPM ratio (pull-down/input)
6,GATGATTGTTCTCCCAGCTGATGAATTGCCATACTCGAGTAAACAAATTTTCCTAATCTTTCTGTTCAAGCGCCATCTAC,1 RPM ratio (pull-down/input)
7,GATGATTGTTCTCCCAGCTGATGAATTTGAGTGTTCGAGTAAACAAATTTTCCTAATCTTTCTGTTCAAGCGCCATCTAC,0.944 RPM ratio (pull-down/input)
8,GATGATTGTTCTCCCAGCTGATGAATTCCTACGCTCGAGTAAACAAATTTTCCTAATCTTTCTGTTCAAGCGCCATCTAC,0.818 RPM ratio (pull-down/input)
9,GATGATTGTTCTCCCAGCTGATGAATTCAGGTCATCGAGTAAACAAATTTTCCTAATCTTTCTGTTCAAGCGCCATCTAC,0.934 RPM ratio (pull-down/input)
10,GATGATTGTTCTCCCAGCTGATGAATTGTGACCCTCGAGTAAACAAATTTTCCTAATCTTTCTGTTCAAGCGCCATCTAC,1 RPM ratio (pull-down/input)
11,GATGATTGTTCTCCCAGCTGATGAATTAATATTTTCGAGTAAACAAATTTTCCTAATCTTTCTGTTCAAGCGCCATCTAC,1.78 RPM ratio (pull-down/input)
12,GATGATTGTTCTCCCAGCTGATGAATTATGGGGGTCGAGTAAACAAATTTTCCTAATCTTTCTGTTCAAGCGCCATCTAC,0.831 RPM ratio (pull-down/input)
13,GATGATTGTTCTCCCAGCTGATGAATTAGTGTTATCGAGTAAACAAATTTTCCTAATCTTTCTGTTCAAGCGCCATCTAC,1.8 RPM ratio (pull-down/input)
14,GATGATTGTTCTCCCAGCTGATGAATTATCACGCTCGAGTAAACAAATTTTCCTAATCTTTCTGTTCAAGCGCCATCTAC,1.06 RPM ratio (pull-down/input)
15,GATGATTGTTCTCCCAGCTGATGAATTGCTTCGGTCGAGTAAACAAATTTTCCTAATCTTTCTGTTCAAGCGCCATCTAC,1.01 RPM ratio (pull-down/input)
16,GATGATTGTTCTCCCAGCTGATGAATTGGACACTTCGAGTAAACAAATTTTCCTAATCTTTCTGTTCAAGCGCCATCTAC,0.982 RPM ratio (pull-down/input)
17,GATGATTGTTCTCCCAGCTGATGAATTCGGCACCTCGAGTAAACAAATTTTCCTAATCTTTCTGTTCAAGCGCCATCTAC,0.767 RPM ratio (pull-down/input)
18,GATGATTGTTCTCCCAGCTGATGAATTCCGGGCTTCGAGTAAACAAATTTTCCTAATCTTTCTGTTCAAGCGCCATCTAC,0.776 RPM ratio (pull-down/input)
19,GATGATTGTTCTCCCAGCTGATGAATTGCTTGAATCGAGTAAACAAATTTTCCTAATCTTTCTGTTCAAGCGCCATCTAC,1.12 RPM ratio (pull-down/input)
20,GATGATTGTTCTCCCAGCTGATGAATTTGGGGCCTCGAGTAAACAAATTTTCCTAATCTTTCTGTTCAAGCGCCATCTAC,0.832 RPM ratio (pull-down/input)

row,Sequence,binding signal
1,GATGATTGTTCTCCCAGCTGATGAATTAGGGGGCTCGAGTAAACAAATTTTCCTAATCTTTCTGTTCAAGCGCCATCTAC,0.791 RPM ratio (pull-down/input)
2,GATGATTGTTCTCCCAGCTGATGAATTCCGCACCTCGAGTAAACAAATTTTCCTAATCTTTCTGTTCAAGCGCCATCTAC,0.782 RPM ratio (pull-down/input)
3,GATGATTGTTCTCCCAGCTGATGAATTGGGTGACTCGAGTAAACAAATTTTCCTAATCTTTCTGTTCAAGCGCCATCTAC,0.92 RPM ratio (pull-down/input)
4,GATGATTGTTCTCCCAGCTGATGAATTACAGGTATCGAGTAAACAAATTTTCCTAATCTTTCTGTTCAAGCGCCATCTAC,1.23 RPM ratio (pull-down/input)
5,GATGATTGTTCTCCCAGCTGATGAATTAAACTATTCGAGTAAACAAATTTTCCTAATCTTTCTGTTCAAGCGCCATCTAC,1.03 RPM ratio (pull-down/input)
6,GATGATTGTTCTCCCAGCTGATGAATTTCTTTCGTCGAGTAAACAAATTTTCCTAATCTTTCTGTTCAAGCGCCATCTAC,0.887 RPM ratio (pull-down/input)
7,GATGATTGTTCTCCCAGCTGATGAATTTACGTGATCGAGTAAACAAATTTTCCTAATCTTTCTGTTCAAGCGCCATCTAC,1.32 RPM ratio (pull-down/input)
8,GATGATTGTTCTCCCAGCTGATGAATTAGCTGGGTCGAGTAAACAAATTTTCCTAATCTTTCTGTTCAAGCGCCATCTAC,0.747 RPM ratio (pull-down/input)
9,GATGATTGTTCTCCCAGCTGATGAATTTCTCTATTCGAGTAAACAAATTTTCCTAATCTTTCTGTTCAAGCGCCATCTAC,0.936 RPM ratio (pull-down/input)
10,GATGATTGTTCTCCCAGCTGATGAATTAATTCCGTCGAGTAAACAAATTTTCCTAATCTTTCTGTTCAAGCGCCATCTAC,0.921 RPM ratio (pull-down/input)
11,GATGATTGTTCTCCCAGCTGATGAATTTGGAAATTCGAGTAAACAAATTTTCCTAATCTTTCTGTTCAAGCGCCATCTAC,0.93 RPM ratio (pull-down/input)
12,GATGATTGTTCTCCCAGCTGATGAATTATATGTTTCGAGTAAACAAATTTTCCTAATCTTTCTGTTCAAGCGCCATCTAC,1.31 RPM ratio (pull-down/input)
13,GATGATTGTTCTCCCAGCTGATGAATTGGCAATTTCGAGTAAACAAATTTTCCTAATCTTTCTGTTCAAGCGCCATCTAC,0.975 RPM ratio (pull-down/input)
14,GATGATTGTTCTCCCAGCTGATGAATTAATTCGATCGAGTAAACAAATTTTCCTAATCTTTCTGTTCAAGCGCCATCTAC,0.92 RPM ratio (pull-down/input)
15,GATGATTGTTCTCCCAGCTGATGAATTTATTTATTCGAGTAAACAAATTTTCCTAATCTTTCTGTTCAAGCGCCATCTAC,2.17 RPM ratio (pull-down/input)
16,GATGATTGTTCTCCCAGCTGATGAATTAAGACCATCGAGTAAACAAATTTTCCTAATCTTTCTGTTCAAGCGCCATCTAC,0.978 RPM ratio (pull-down/input)
17,GATGATTGTTCTCCCAGCTGATGAATTGACGAATTCGAGTAAACAAATTTTCCTAATCTTTCTGTTCAAGCGCCATCTAC,1.24 RPM ratio (pull-down/input)
18,GATGATTGTTCTCCCAGCTGATGAATTCAGATTATCGAGTAAACAAATTTTCCTAATCTTTCTGTTCAAGCGCCATCTAC,0.977 RPM ratio (pull-down/input)
19,GATGATTGTTCTCCCAGCTGATGAATTTAACTCGTCGAGTAAACAAATTTTCCTAATCTTTCTGTTCAAGCGCCATCTAC,0.885 RPM ratio (pull-down/input)
20,GATGATTGTTCTCCCAGCTGATGAATTCCTTTTTTCGAGTAAACAAATTTTCCTAATCTTTCTGTTCAAGCGCCATCTAC,0.895 RPM ratio (pull-down/input)
